{
  "source": "the supplement of paper PMC9446081",
  "note": "The whole screen tested about 39,000 compounds, of which about 220 (0.56%) showed activity. This is one part of the list.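 Further: static incubation at 37 °C against the wild-type strain, values averaged over two biological replicates.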",
  "data": [
    {"system": "Escherichia coli K-12 BW25113", "assay": "relative growth (OD600 normalised to plate interquartile mean) (fraction); higher = less growth inhibition, active = 0.2 or less", "conditions": "50 µM; LB; incubation time: overnight (16-24 h)", "values": [
      {"smiles": "O=C(O)CNS(=O)(=O)c1ccccc1", "relative growth": "inactive: 1.01"},
      {"smiles": "C[C@@H]1CN([C@H](C)CO)C(=O)Cc2cc(NC(=O)C3CC3)ccc2O[C@@H]1CN(C)S(=O)(=O)c1ccccc1", "relative growth": "inactive: 0.953"},
      {"smiles": "C[C@H]1CN([C@@H](C)CO)C(=O)c2cccc(NC(=O)c3ccc(-c4nccs4)cc3)c2O[C@H]1CN(C)S(=O)(=O)c1cn(C)cn1", "relative growth": "inactive: 0.991"},
      {"smiles": "C[C@@H]1CCCCO[C@@H](CN(C)Cc2ccc(C(=O)O)cc2)[C@H](C)CN([C@H](C)CO)C(=O)c2cc(NC(=O)NC3CCCCC3)ccc2O1", "relative growth": "inactive: 1.02"},
      {"smiles": "C[C@H]1CN([C@@H](C)CO)S(=O)(=O)c2ccc(C#CC3CCCCC3)cc2O[C@H]1CN(C)C(=O)Cc1ccncc1", "relative growth": "inactive: 1.03"},
      {"smiles": "CN1CCN(CC#N)C(=O)C12CCN([C@H]1CCOC1)CC2", "relative growth": "inactive: 0.961"},
      {"smiles": "COCC(=O)c1ccnn1C", "relative growth": "inactive: 1.05"},
      {"smiles": "COc1ccc(S(=O)(=O)Nc2ccc3c(c2)CC(=O)N([C@@H](C)CO)C[C@@H](C)[C@@H](CN(C)C(=O)Nc2c(C)noc2C)O3)cc1", "relative growth": "inactive: 1"},
      {"smiles": "C=CCC[C@@H](Cc1ccc(F)cc1)C(=O)OC[C@@H](Cc1c[nH]c2ccccc12)NC(=O)[C@H](CC=C)CC(=O)N(CCO)Cc1ccccc1", "relative growth": "inactive: 1.06"},
      {"smiles": "C[C@H]1CN([C@@H](C)CO)C(=O)Cc2cc(NC(=O)C3CC3)ccc2O[C@H]1CN(C)S(=O)(=O)c1ccc(F)cc1", "relative growth": "inactive: 0.954"},
      {"smiles": "Cc1noc(C)c1NC(=O)Nc1ccc2c(c1)C(=O)N([C@@H](C)CO)C[C@@H](C)[C@H](CN(C)C(=O)NC1CCCCC1)OCCCC[C@H](C)O2", "relative growth": "inactive: 1.01"},
      {"smiles": "C[C@@H]1CN([C@H](C)CO)C(=O)Cc2cc(NC(=O)NC3CCCCC3)ccc2O[C@H]1CN(C)S(=O)(=O)c1cn(C)cn1", "relative growth": "inactive: 1.03"},
      {"smiles": "C[C@@H]1CCCCO[C@H](CN(C)C(=O)Nc2cccc3ccccc23)[C@@H](C)CN([C@H](C)CO)C(=O)c2cc(NC(=O)NC3CCCCC3)ccc2O1", "relative growth": "inactive: 0.985"},
      {"smiles": "CC(C)NC(=O)N(C)C[C@@H]1Oc2ccc(NC(=O)C3CCCCC3)cc2CC(=O)N([C@@H](C)CO)C[C@@H]1C", "relative growth": "inactive: 1.02"},
      {"smiles": "Clc1ccccc1Nc1ccc(-c2ccncc2)s1", "relative growth": "inactive: 1.03"},
      {"smiles": "S=c1[nH]cnc2nc[nH]c12", "relative growth": "inactive: 0.822"},
      {"smiles": "CC(Cn1cnc2c(N)ncnc21)OCP(=O)(O)O", "note": "(stereo not drawn)", "relative growth": "inactive: 0.984"},
      {"smiles": "C[C@@H]1CN([C@H](C)CO)C(=O)c2cc(NC(=O)Nc3ccccc3)ccc2O[C@@H](C)CCCCO[C@@H]1CN(C)Cc1ccncc1", "relative growth": "inactive: 0.974"}
    ]}
  ]
}
